# Data reported in the RNAGym collection of RNA variant scans (doi:10.7554/elife.90254).
# Read counts are not given, so values of variants with three or more changes are uncertain.
# B1: OR4K15 (parent)
# chain: GUUAACGGUCAUAGGCCAUGGAAACUAGGAGCACCAUUUCGCUGCCAGUGAAGAAAUGAACAAAGAAAAUCUGGGCCAGGCAGGCAUCAAAAGAAAUAGUCUUGCGCUCAACCAGAAAGUCUGUAAUCAUUUUAAGGGUA
# Variants of: B1
# Test: self-cleavage, relative activity (ratio to wild type); higher = more cleavage; in vitro, sequencing; the parent is a self-cleaving ribozyme
row,Variant,self-cleavage
1,GUUAACGGUCAUAGGCCAUGGAAACUAGGAGCACCAUUUCGCUGCCAGUGAUGAAAUGAACAAAGAAAAUCUGGGCCAGGCAGGCAUCAAAAGAAAUAGUCAUGCGCCCAACCAGAAAGUCUGUAAUCAUUUUAAGGGUA,0
2,GUUAACGGUCAUAGGCCAUGGAAACUAGGAGCACCACUUCGCUGCCAGCGAAGAAAUGAACAAAGAAGAUCUGGGCCAGGCAGGCAUCAAAAGAAAUAGUCUUGCGCUCAACCAGAAAGUCUGUAAUCAUUUUAAGGGUA,2.13
3,GUUAACGGUCGUAGGCCAUGGAGACUAGGAGCCCCAUUUCGCUGCCAGUGAAGAAAUGUACAAAGAAAAUCUGGGCCAGGCAGGCAUCAAAAGAAAUAGUCUUGCGCUCAACCAGAAAGUCUGUAAUCAUUUUAAGGGUA,1.38
4,GCUAACGGUCAUAGGCCAUGGAAACUAGGAGCACCACUUCGCUGCCAGUGAAGAAAUGAACAAAGAAAAUCUGGGCCAGGCAGGCAUCAAAAGAAAUAGUCUUGCGCUCAACCAGAAAGCCUGUAAUCAUUCUAAGGGUA,1.27
5,GUUAACGGUCAUAGGCCAUGGAAACUAGGAGCACCAUAUCGCUGCCAGUGAAGAAAUGAACAAAGAAAAUCUGGGCCGGGCAGGCAUCAAAAGAAAUAGACUUGCGCUCAACCAGAAAGUCUGUAAUCAUUUUAAGGGUA,0.09
6,GUUAACGGUCAUAGGCCAUGGAAACCGGGGGCACCAUUUCGCUGCCAGCGAAGAAAUGAACAAAGAAAAUCUGGGCCAGGCAGGCAUCAAAAGAAAUAGUCUUGCGCUCAACCAGAAAGUCUGUAAUCAUUUUAAGGGUA,0.66
7,GUUAGCGGUCAUAGGCCAUGGAAACUAGGAGCACCAUUUCGCUGCCAGUGAAGAAAUGAACAAAGAAAAUCUGGGCCAGGCAGGCAUCAAAAGAAAUAGUCUUGCGCUCAGCCAGAAAGUCGGUAAUCAUUUUAAGGGUA,0.04
8,GUUAACGGUCAUAGGCCAUGGAAACUAGGAGCACCAUCUCGCUGCCAGUGAAGAAAUGAACAAAGAAAAUCUGGGCCAGGCAGGCAUCAAAAGAAAUAGUCUUGCGCUCUAUCAGAAAGUCUGUAAUCAUUUUAAGGGUA,0
9,GUUAACGGUCAUGGGCCAUGGAAACUAGGAGCACCAUUUCGCUGCCAGUGAAGAAAUGAACAAAGAAAAUCUGGGCCAGGCAGGCAUCAAAAGAAAUGGCCUUGCGCUCAACCAGAAAGUCUGUAAUCAUUUUAAGGGUA,0.8
10,GUUAACGGUCAUAGGCCAUGGGAACUAGGAGCACCGUUCCGCUGCCAGUGAAGAAAUGAACAGAGAAAAUCUGGGCCAGGCAGGCAUCAAAAGAAAUAGUCUUGCGCUCAACCAGAAAGUCUGUAAUCAUUUUAAGGGUA,1.48
11,GUUAUCGGUCAUAGGCCAUGGAAACUAGGAGCACCAUUUCGCUGCCAGAGAAGAAAUGAACAAAGAAAAUCUGGGCCAGGCAGGCAUCGAAAGAAAUAGUCUUGCGCUCAACCAGAAAGUCUGCAAUCAUUUUAAGGGUA,0.64
12,GUUAACGGUCAUAGGCCAUGGAAACUGGGAGCGCCAUUUCGCUGCCAGUGAAGAAAUGAACAAAGAAAAUCUGGGCCAGGCAGGCAUCAAGAGAAAUAGUCUUGCGCUCAACCAGAAAGUCUGUAAUCAUUUUGAGGGUA,0.16
13,GUUAUCGGUCAUAGGCCAUGGAAACUAGGAGCACCAUUUCGCUGCCAGUGAAGAAAUGAACAAAGAAAAACUGGGCCAGGCAGGCAUCAAAAGAAAUAGUCUUGCGCUCAACCAGGAAGUCCGUAAUCAUUUUAAGGGUA,0.21
14,GUUAACGGUCAUAGGCCAUGGAAACUAGGAGCACCAUUUCGCUGCCAGUGAAGAAAUGAACAAAGAGAAUCUGGGCCAGGCAGGCAUCAAAAGAAAUAGUCUCGCGCUCAACCAGAAAGUCUGUAAUUAUUUUAAGGGUA,0.22
15,GUUAGCGGUCAUAGGCCAUGGAAACUAGGAGCACCAUUUCGCUGCCAGUGAAGGAAUGAACAAAGAAAAUCUGGGCCAGGCAGGCAUCAAAAGAAAUAGUCUUGCGCUCAACCCGAGAGUCUGUAGUCAUUUUAAGGGUA,0
16,GUUAACGGUCAUAGGCCAUGGAAACUAGGAGCACCAUUUCGCUGCCAGUGAAGAAAUGAACAAAGAAAAUCUGGGCCAGGCAGGCAUCAAGAGAAAUAGUCUUGCGCUCAACCAGAAAGUCUGUAAUCAUCUUAAGGGUG,1.07
17,GUUAACGGUCAUAGGCCAUGGAAACUAGGAGCACCAUUUCGCUGCCAGUGAGGAAAUGAACAAAGAAAAUCUGGGCCAGGCAGGCAUCAAAAGAAAUAGUCUUGCGCUCAACCAGAAAGUCUGUAAUCACCUUAAGGGUA,1.47
18,GUUAACAGUCAUGGGCCUUGGAAACUAGGGGCACCACUUCGCUGCCAGUGAAGAAAUGAACAAAGGAAAUCUGGGCCAGGCAGGCAUCAAAAGAAAUAGUCUUGCGCUCAACCAGAAAGUCUGUAAUCAUUUUAAGGGUA,1.75
19,GUUAACGGUCAUAGGCCCUGGAAGCUAGGAGCACCAUUUCGCUGCCAGUGAAGAAAUGAGCAAAGAAAAUCUGGGCCAGGCAGGCAUCAAAAGAAAUAGUCCUGCGCUCAGCCAGAAAGUCUGUAAUCAUUUUAAGGGUA,0.04
20,GUUAACGGUCAUAGGCCAUGGAAACUAGGAGCACCAUUUCGCUGCCAGUGAAGAAAUGGACAAAGAAAAUCUGGGCCAGGCAGGCAUCAAAAGAAAUAGUCUUGCGCUCAACCAGAAAGUCUGUGAUCAUUUUAAGAGUA,0.29
21,GUUAACGAUCGUAGGCCAUGGAAACUAGGAGCACCAUUUCGCUACCAGUGAAGAAAUGAACAAAGAAGAUCCGGGCCAGGCAGGCAUCAAAAGAAAUAGUCUUGCGCCCAACCAGAAAGUCCGUAAUCAUUUUAAGGGUA,0.01
